In PubChem BioAssay (NCI) one finds TGI and GI50 data, which are given here for 50 compounds.

Where “and” joins values, the source holds several entries; their conditions need not be identical. Identical values can stand only once.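 Assay format: 96-well plates, 48-hour exposure. Here, GI50 denotes the concentration required for 50% inhibition of growth. Definition used: TGI = concentration required for complete inhibition of growth.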

This assay deals with NCI-H322M lung. The assay is described as follows: NCI anticancer screen, dose series, 48 h.
As for `O=C1N[C@@H]2CCCC[C@@H]2C12CCCCC2`, the TGI is over 100 µM.

For the compound `O=NN(CCCl)C(=O)NC1CCC(CC(=O)O)CC1` (stereo not given), the TGI was over 100 µM.

In turn, `O=C1c2ccccc2N2OC3(N4CCOCC4)CCCC3C12c1ccccc1` (stereo not given) showed a TGI of over 100 µM.

`NNC(=O)C(=O)NN=C(C(Cl)(Cl)CO)C(Cl)(Cl)CO` registered a TGI of over 100 µM.

Regarding `CCCCS(=O)c1sc2nc(-c3cccs3)cc(-c3ccccc3)c2c1N` (stereo not given), the GI50 is 25.2 µM and the TGI was over 100 µM.

The compound `Cc1cc2nc3c(C#N)c(-c4ccccc4)/c(=C\Nc4ccc(F)cc4)c(=O)n3c2cc1C` registered a TGI of over 100 µM.

Take `COCCOC1=C(Cl)C(=O)c2ccccc2C1=O`: the GI50 is 15.1 µM and the TGI is 29.8 µM.

On to `CC(=O)O[C@H]1CC2C(C3CC[C@H](C(C)CCC(=O)O)[C@]31C)[C@H](OC(C)=O)C[C@@H]1CC3(CC[C@]21C)OOC1(CCC(C)CC1)OO3` (stereo not given in full), for which the GI50 is 22.1 µM and 3.66 µM; the TGI was 36.7 µM and 16.9 µM.

For the compound `Cc1cccc2sc(NC(=O)NS(=O)(=O)n3cnc4ccccc43)nc12`, the TGI was over 100 µM.

Compound `COc1cc(OC)c(OC)cc1/C=C/c1nc2ccccc2s1` displayed a TGI of over 100 µM.

`CCc1cccc(CC)c1NC(=O)/C(Cl)=C(/Cl)C(=O)O`: the TGI is over 100 µM.

`NC1=NC(Cn2nc(-c3ccccc3)c3ccccc3c2=O)=NNC(=O)N1`: the TGI is over 100 µM.

Consider `NCCOc1cccc(C2(N3CCCCC3)CCCCC2)c1`, for which the TGI is over 100 µM.

In the case of `O=C1c2ccccc2C(=O)c2[nH]cnc21`, the TGI was over 100 µM.

For `CC(=O)OCC(=O)[C@@]1(O)CC[C@H]2[C@@H]3C[C@H](C)C4=CC(=O)C=C[C@]4(C)[C@@]3(F)[C@@H](O)C[C@@]21C`, the TGI was over 100 µM.

For the compound `CCCCCCCCOCC(COC(=O)CCCCCCC)OC(=O)CCCCCCC` (stereo not given), the TGI is over 100 µM.

On to `C1CSCCSCCCS[C@@H]2CCCCC2SC1` (stereo not given in full), for which the TGI was over 100 µM.

On to `COc1ccc(Nc2cnc3cc(N)cc(N)c3n2)cc1`, for which the GI50 is 25.7 µM and the TGI was 94.1 µM.

With `O=C1CC(c2cccc(Cl)c2)Nc2ccc(N3CCCC3)cc21` (stereo not given), the GI50 was 0.0915 µM and the TGI was over 100 µM.

Consider `CNCc1ccc(-c2cc(-c3nc(-c4ccc(S(=O)(=O)C(C)C)cc4)cnc3N)on2)cc1`, for which the GI50 was 0.482 µM and the TGI is 15.1 µM.

In turn, `NS(=O)(=O)c1nnc(NC(=S)NC(=O)Nc2ccc(Cl)c(Cl)c2)s1` had a TGI of 56.9 µM.

For the compound `O=C(NCCN(CCNC(=O)c1cccc(O)c1O)CCNC(=O)c1cccc(O)c1O)c1cccc(O)c1O`, the TGI is over 100 µM.

Regarding `Cc1nc2sc3cccc(Cl)c3n2c(=O)c1N=Nc1ccc(Cl)cc1`, the TGI is over 100 µM.

For `OCC1CC[N-]CC1.OCC1CC[N-]CC1.[Cl][Pt+2]([Cl])([Cl])[Cl]`, the GI50 is 29.5 µM and the TGI came out at 89.3 µM.

Compound `O=S(=O)(/N=C(\NO)Nc1ccc(Cl)cc1)c1cc(C(F)(F)F)cc(C(F)(F)F)c1` gave a TGI of 33.4 µM.

`Cc1c(C)c2c(c(N)c1C#N)C(=O)N(Cc1ccc(S(N)(=O)=O)cc1)C2=O`: the TGI was over 100 µM.

In turn, `O=C1CC(c2ccc(Cl)cc2)=Nc2ccccc2N1` showed a TGI of over 100 µM.

In turn, `COc1cc(/C=C/c2csnn2)cc(OC)c1OC` came in with a TGI of over 100 µM.

As for `N#CC(C#N)=C/C=C(\Sc1ccc(Cl)cc1)c1ccc(F)cc1`, the GI50 is 4.69 µM and the TGI was found to be 15.6 µM.

In turn, `Cn1c(CNc2ccc(-c3n[nH]c(=S)n3C)cc2)n[nH]c1=S` returned a TGI of over 100 µM.

Compound `Cc1ccccc1C(CCCO)C(=O)O` (stereo not given) returned a TGI of over 100 µM.

In turn, `CCN(CC)CCNc1ccc2ncn3c4ccc(O)cc4c(=O)c1c23` returned a TGI of 15.5 µM.

Take `O=C(NCCc1ccccc1)C1C(=O)C(=O)N(CCc2ccccc2)C1=O` (stereo not given): the TGI is over 100 µM.

`CSCCC(C(=O)O)N(C)C` (stereo not given) had a TGI of over 100 µM.

Turning to `COc1ccc(-c2c(C3=NCCCN3)nnn2-c2ccccc2)cc1`, the TGI is over 100 µM.

With `O=[N+]([O-])c1cccc2nc3ccccc3c(NCCCCCNc3c4ccccc4nc4cccc([N+](=O)[O-])c34)c12`, the GI50 is 0.0135 µM; the TGI was 0.409 µM and 0.178 µM.

On to `O=C(O)CCCc1ccc2c(c1)CC1(C2)Cc2cc3c(cc2C1)CCCC3`, for which the TGI was 69 µM.

As for `Cc1ccc(S[C@@](C=O)(NC(=O)OCc2ccccc2)C(F)(F)F)cc1`, the TGI is over 100 µM.

The compound `COC(=O)[C@@H]1CO[C@H](C(C)(C)C)N1C(=O)N1C=CC(=O)C[C@H]1C` showed a TGI of over 100 µM.

In the case of `C#Cc1ccc(-n2c(/C=C/c3ccc(O)cc3)nc3ncccc3c2=O)cc1`, the GI50 is 5.58 µM and the TGI is over 100 µM.

`Cc1nc2c(sc3nc4c(cc32)CCC4)c(=O)o1`: the TGI is over 100 µM.

`CCCC(=O)CC(C)C(=O)C(=O)NC12CC3CC(CC(C3)C1)C2` (stereo not given) yielded a TGI of over 100 µM.

For `COC(=O)c1cc2c(cc1Cl)Sc1nnc(Nc3ccccc3)n1S2(=O)=O`, the TGI is 19.3 µM.

As for `O=C(Nc1ccc(OC(F)(F)Cl)cc1)c1cnc(N2CC[C@@H](O)C2)c(-c2ccn[nH]2)c1`, the GI50 is 12.5 µM and the TGI was 31.7 µM.

For the compound `CCOc1cnc(C(O)(c2ccccc2)c2ccccc2)o1`, the TGI was over 100 µM.

`Cc1cc(Br)c(NC(=O)c2c(-c3c(Cl)cccc3Cl)noc2C)c(Br)c1`: the GI50 was over 100 µM and the TGI was over 100 µM.

As to `C=CCNC(=O)C(C)C1CCC2(C)C=CC(=O)C(C)=C2C1O` (stereo not given), the TGI is over 100 µM.

Turning to `Cc1cnc(C(=O)NNc2nc3sc4c(c3c(=O)[nH]2)C(C)CCC4)cn1` (stereo not given), the GI50 is 0.488 µM and the TGI was 41 µM.

Take `S=C1SCN(Cc2ccccc2)CN1Cc1ccco1`: the GI50 is 27.6 µM and the TGI is over 100 µM.

For the compound `COc1ccc(C(O)c2cc3c(N)c(C(=O)Nc4cccc5ccccc45)sc3nc2C)cc1` (stereo not given), the GI50 is 0.589 µM and the TGI was over 100 µM.
